Consider 29 compounds from PubChem BioAssay AID1745853 (National Center for Advancing Translational Sciences (NCATS), 2022).

What all share (assay): Primary Screen for Target Class Profiling of Small Molecule Inhibitors of Methyltransferases
In test [1] the target is Glycine N-methyltransferase (Homo sapiens) (UniProt Q14749). Conditions: purified enzyme, MTase-Glo SAH luminescence; measured here: GNMT inhibition; at 40 µM; stronger effect = lower value. The procedure, abridged: (§1)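 Each enzyme was assayed with SAM and its substrate. SAH formation detected by MTase-Glo luminescence; single-point 40 uM screen[…].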
For test [2], the target named is Guanidinoacetate N-methyltransferase (Homo sapiens) (UniProt Q14353). The conditions noted are these: purified enzyme, MTase-Glo SAH luminescence; measured here: GAMT inhibition; at 40 µM; stronger effect = lower value. In outline:
as §1

Test [3] concerns the target Histamine N-methyltransferase (Homo sapiens) (UniProt P50135). The conditions noted are these: purified enzyme, MTase-Glo SAH luminescence; measured here: HNMT inhibition; at 40 µM; stronger effect = lower value. The procedure, abridged: as §1
In test [4] the target is Nicotinamide N-methyltransferase (Homo sapiens) (UniProt P40261). Conditions: purified enzyme, MTase-Glo SAH luminescence; measured here: NNMT inhibition; at 40 µM; stronger effect = lower value. The procedure, abridged:
as §1

Test [5] has as its target Phenylethanolamine N-methyltransferase (Homo sapiens) (UniProt P11086). Conditions: purified enzyme, MTase-Glo SAH luminescence; measured here: PNMT inhibition; at 40 µM; stronger effect = lower value. The procedure, abridged:
as §1

SMILES strings stand for the structures. Some of the results follow. Shown are side measurements of this screen, not its main read-out; they come without a call.
% is set by controls: 0 for no effect and ±100 for the full control effect.

As to `C=CCC1(CO)CCCN(C(=O)CCCn2nc(C)cc2C)C1` (stereo not given), the activity change, negative = inhibition was -1.06% in test [1]; 1.23% in test [2]; 2.05% in test [3]; -3.68% in test [4]; -0.478% in test [5].

`CN1CCOC(c2ccccc2)c2ccccc2C1` (stereo not given): the activity change, negative = inhibition in test [1] was 3.04%; in test [2], 3.83%; in test [3], -9.24%; in test [4], -11.7%; in test [5], 3.64%.

For the compound `Cn1cc(C(=O)N2CCC(N(Cc3ccccc3)C3CCOCC3)CC2)cn1`, the activity change, negative = inhibition in test [1] was -1.2%; in test [2] it was -1.83%; in test [3], 0.393%; in test [4], 2.07%; in test [5], 0.532%.

Turning to `Cc1ccc(Cn2nc3n(C)c(=O)c4ccc(C(=O)NC5CCCC5)cc4n3c2=O)cc1`, the activity change, negative = inhibition in test [1] was -2.04%; in test [2], 1.2%; in test [3], -3%; in test [4], -1.88%; in test [5], -0.693%.

Take `CCCn1c(=O)c2cc(F)ccc2n2c(SCc3cc(C)ccc3C)nnc12`: the activity change, negative = inhibition in test [1] was -13.9%; in test [2], 2.58%; in test [3] it was 0.989%; in test [4], -8.77%; in test [5], -3.15%.

Take `C=C1CC2C(C)(CCC(=O)O)C(C(C)(C)O)CCC2(C)C2C(=O)OC(C)(C(=O)OC)C(=O)C12C` (stereo not given): the activity change, negative = inhibition was -0.772% in test [1]; -7.31% in test [2]; -5.98% in test [3]; -18.6% in test [4]; -2.66% in test [5].

For `CCOCCCNc1nc2c(S(=O)(=O)c3ccc(C)cc3)nnn2c2ccccc12`, the activity change, negative = inhibition in test [1] was -9.01%; in test [2], -2.46%; in test [3], -5.76%; in test [4] it was -5.6%; in test [5], -11.6%.

Regarding `CC(c1ccc(-c2cc(N3CCN(C)CC3)nc(N)n2)cc1)N1CCOCC1` (stereo not given), the activity change, negative = inhibition in test [1] was -3.02%; in test [2] it was -0.952%; in test [3], -34.3%; in test [4] it was 0.366%; in test [5], 2.25%.

Regarding `Cc1ccc(NC(=O)Cn2nc3n(CC(C)C)c(=O)c4ccc(C(=O)NCC(C)C)cc4n3c2=O)cc1C`, the activity change, negative = inhibition stood at 2.03% in test [1]; 0% in test [2]; 2.9% in test [3]; 3.12% in test [4]; 2.75% in test [5].

Consider `COc1ccc(N2CCOCC2)c2sc(NC(=O)N3CCC(C)(O)CC3)nc12`, for which the activity change, negative = inhibition in test [1] was -22.1%; in test [2], -7.94%; in test [3] it was -1.14%; in test [4], -18.4%; in test [5], -31.6%.

Regarding `O=C1NC(=Nc2ccccc2F)S/C1=C\c1ccc(C(=O)O)cc1`, the activity change, negative = inhibition in test [1] is -4.16%; in test [2] it was 3.84%; in test [3] it was 9.61%; in test [4], -10.6%; in test [5], 4.71%.

With `O=C1CN(Cc2ccc(F)cc2Cl)S(=O)(=O)c2ccccc2N1Cc1ccccc1F`, the activity change, negative = inhibition was 13.7% in test [1]; 0.186% in test [2]; 5.13% in test [3]; 8.82% in test [4]; 4.56% in test [5].

As for `COc1ccc(CCN2CCCC(CN(C)Cc3cnc[nH]3)C2)cc1` (stereo not given), the activity change, negative = inhibition in test [1] is -4%; in test [2] it was -2.53%; in test [3], -46.6%; in test [4] it was -8.78%; in test [5], -3.6%.

For `CCN1C(=O)c2cc3ccccc3n2CC1(C)C(=O)NCC(=O)NCCCOC` (stereo not given), the activity change, negative = inhibition in test [1] is -7.2%; in test [2] it was 2.67%; in test [3], -1.97%; in test [4], -5.77%; in test [5], -5.31%.

In the case of `CCOc1ccc(CNC(=O)c2cc3n(n2)CC(C)(C(=O)NC2CCCC2)N(CC)C3=O)cc1OC` (stereo not given), the activity change, negative = inhibition in test [1] turned out to be 1.11%; in test [2] it was 1.47%; in test [3], 1.15%; in test [4] it was 5.11%; in test [5], 2.74%.

Take `CCCNC(=O)c1cc2n(n1)CC(C)(C(=O)NC1CCCCC1)N(C)C2=O` (stereo not given): the activity change, negative = inhibition in test [1] came to 8.69%; in test [2], 5.12%; in test [3], 6.57%; in test [4], 8.67%; in test [5] it was 3.66%.

As to `CC1(C(=O)NC2CCCCC2)Cn2nc(-c3cccs3)cc2C(=O)N1Cc1ccc2c(c1)OCO2` (stereo not given), the activity change, negative = inhibition was -1.77% in test [1]; 4.56% in test [2]; 0.664% in test [3]; 5.17% in test [4]; 0.071% in test [5].

For the compound `CCCCNc1ccc(C(=O)OCCN(C)C)cc1`, the activity change, negative = inhibition in test [1] is -4.3%; in test [2], 8.2%; in test [3] it was 6.48%; in test [4], -8.32%; in test [5], -4.12%.

As to `CC(=O)Nc1ccc(-c2nnc3n(Cc4ccc(C)cc4)c(=O)c4ccccc4n23)cc1`, the activity change, negative = inhibition in test [1] is -8.5%; in test [2], 1.24%; in test [3] it was -3.05%; in test [4], 0.505%; in test [5], -3.9%.

Take `CC(C)Cn1c(=O)c2ccc(C(=O)NC3CCCC3)cc2n2c(=O)n(Cc3c(F)cccc3Cl)nc12`: the activity change, negative = inhibition in test [1] is -1.79%; in test [2], 4.59%; in test [3] it was 2.54%; in test [4], 1.25%; in test [5], 1.8%.

For the compound `CNC(=O)c1cn2c(n1)CN([S+](C)(=O)[O-])CC2`, the activity change, negative = inhibition in test [1] is -0.054%; in test [2] it was -3.34%; in test [3], 1.62%; in test [4], -2.41%; in test [5] it was -0.819%.

For the compound `COCC1CN(C(C)=O)CC12CCN(C(=O)c1nn(C)c3ccccc13)CC2` (stereo not given), the activity change, negative = inhibition in test [1] was -0.448%; in test [2] it was -1.18%; in test [3], 2.52%; in test [4], -3.16%; in test [5], 2.64%.

Regarding `COc1ccc(NC(=O)c2ccc(-c3ccc(-c4noc(C)n4)cc3C)cc2)cc1N1CCN(C)CC1`, the activity change, negative = inhibition in test [1] was -14%; in test [2], 2.62%; in test [3] it was -14.1%; in test [4] it was -8.07%; in test [5], 1.96%.

As to `COc1cc(-c2onc(C)c2C(=O)NCCCOC(C)C)cc(OC)c1OC`, the activity change, negative = inhibition in test [1] is 2.19%; in test [2], 3.23%; in test [3], 4.51%; in test [4], -1.52%; in test [5] it was -0.835%.

As to `CC(C)Oc1ccc(CNC(=O)C(C)n2ccc3cc(S(=O)(=O)N4CCCC4)ccc32)cc1` (stereo not given), the activity change, negative = inhibition was 1.76% in test [1]; 0.493% in test [2]; 1.89% in test [3]; -4.31% in test [4]; -2.65% in test [5].

`CCCC1c2cccn2CCN1C(=O)Nc1ccc(F)cc1F` (stereo not given): the activity change, negative = inhibition is -0.419% in test [1]; 0.127% in test [2]; -39.8% in test [3]; 4.89% in test [4]; 4.49% in test [5].

For `CCCN1C(=O)c2cc(C(=O)NCCCN3CCOCC3)nn2CC1(C)C(=O)NC1CCCC1` (stereo not given), the activity change, negative = inhibition came out at 7.66% in test [1]; 0% in test [2]; 6.34% in test [3]; 5.6% in test [4]; 3.99% in test [5].

Regarding `CNC(=O)c1cc(C2CC2)nc2onc(C3CCN(C(=O)c4ccc(Cl)nc4)C3)c12` (stereo not given), the activity change, negative = inhibition in test [1] is -5.06%; in test [2], -5.2%; in test [3], 0.332%; in test [4], -12.9%; in test [5], 5.12%.

As for `Cc1cnc(Nc2ccc(F)cc2Cl)nc1-c1c[nH]c(C(=O)N[C@H](CO)c2cccc(Cl)c2)c1`, the activity change, negative = inhibition is -15.8% in test [1]; -24% in test [2]; -10.8% in test [3]; -40.6% in test [4]; -12.8% in test [5].
